According to paper PMC4336329 (PLoS ONE, 2015):
Among all 310,000 compounds or so, about 2,200 (0.71%) showed an effect of 50% or more. The effect is printed as a negative number. This is one part of the list.

The compounds below were run against human ether-à-go-go-related gene (hERG) potassium channel (human, UniProt Q12809) (assay: primary screen, population patch clamp on CHO cells stably expressing hERG).
Sequence of human ether-à-go-go-related gene (hERG) potassium channel (Q12809 whole entry, looked up): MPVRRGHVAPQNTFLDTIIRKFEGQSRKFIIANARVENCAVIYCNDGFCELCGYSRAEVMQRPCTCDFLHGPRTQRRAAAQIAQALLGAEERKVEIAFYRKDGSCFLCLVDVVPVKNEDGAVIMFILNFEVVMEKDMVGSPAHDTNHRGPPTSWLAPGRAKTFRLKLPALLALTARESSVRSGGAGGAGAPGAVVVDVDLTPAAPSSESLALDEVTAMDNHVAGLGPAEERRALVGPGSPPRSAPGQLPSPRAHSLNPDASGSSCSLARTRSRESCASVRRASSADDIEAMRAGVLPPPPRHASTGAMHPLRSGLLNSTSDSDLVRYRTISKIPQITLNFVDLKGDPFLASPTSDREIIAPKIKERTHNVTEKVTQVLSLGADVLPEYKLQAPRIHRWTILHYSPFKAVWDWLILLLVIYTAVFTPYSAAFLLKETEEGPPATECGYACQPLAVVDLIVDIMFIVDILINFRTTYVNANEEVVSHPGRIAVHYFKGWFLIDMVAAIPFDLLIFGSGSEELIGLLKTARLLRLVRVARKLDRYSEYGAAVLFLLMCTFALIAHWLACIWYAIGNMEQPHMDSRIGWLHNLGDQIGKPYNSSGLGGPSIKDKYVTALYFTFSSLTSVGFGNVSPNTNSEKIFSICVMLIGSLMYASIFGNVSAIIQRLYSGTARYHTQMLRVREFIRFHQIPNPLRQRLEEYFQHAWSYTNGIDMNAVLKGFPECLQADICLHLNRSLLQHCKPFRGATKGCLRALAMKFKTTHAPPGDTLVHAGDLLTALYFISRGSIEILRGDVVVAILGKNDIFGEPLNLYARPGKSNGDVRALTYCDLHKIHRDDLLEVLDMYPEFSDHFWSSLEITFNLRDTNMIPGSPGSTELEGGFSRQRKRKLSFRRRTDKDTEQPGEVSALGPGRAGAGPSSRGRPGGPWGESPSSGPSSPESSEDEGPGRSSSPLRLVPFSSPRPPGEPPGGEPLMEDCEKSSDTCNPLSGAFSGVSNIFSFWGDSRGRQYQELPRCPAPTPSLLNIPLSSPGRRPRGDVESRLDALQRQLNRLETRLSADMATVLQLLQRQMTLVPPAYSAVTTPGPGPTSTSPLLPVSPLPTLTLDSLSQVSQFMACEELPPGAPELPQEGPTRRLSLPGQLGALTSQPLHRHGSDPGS

Structure (SMILES)	hERG current change (%, negative = inhibition) at 1uM [%]
CC(=O)Nc1ccc(S(=O)(=O)Nc2ccc(Cl)cn2)cc1	20.5
CCc1ccc(C2c3[nH]c4ccccc4c3CCN2C(=O)CN2CCN(CC)CC2)cc1 (stereo not drawn)	12
O=C(O)c1cc(NCc2ccccc2C(F)(F)F)ccc1N1CCOCC1	-7.04
CC1=CC=CC2=NC(=O)CC(C)(C(=O)N(CC(=O)NC(C)C)C3CCCC3)N12 (stereo not drawn)	9.81
CC(C)Sc1nc2c(cnn2-c2ccccc2)c(=O)[nH]1	15.4
CCOC(=O)C1=C(C)N=c2s/c(=C/c3cccc(OCC(=O)O)c3)c(=O)n2C1c1ccc(F)cc1 (stereo not drawn)	16.2
COc1ccc(C(=O)N(c2ccc(C)cc2)C2C=CS(=O)(=O)C2)cc1OC (stereo not drawn)	10.7
CCOC(=O)c1cc(=O)c2c([N+](=O)[O-])ccc(OC)c2o1	10.1
Cc1ccc(C(=O)N2CCN(S(=O)(=O)N3CCOCC3)CC2)cc1	7.77
Oc1ccccc1N1CCN(c2ccc3ccccc3n2)CC1	15.2
CCN(Cc1ccccc1)c1c(C(=O)O)cnc2c1cnn2C	6.01
CCOC(=O)Cc1csc(NC(=O)c2sc3nc4ccc(C)cc4cc3c2N)n1	0.0518
COc1ccc(CCNC(=O)C2CCN(c3nccc(C)n3)CC2)cc1	15.2
Cc1ccc(C(=O)C2COC(=O)C2)cc1 (stereo not drawn)	7.85
Cn1c(=O)c2c(nc(CN3CCN(CCO)CC3)n2Cc2cccc3ccccc23)n(C)c1=O	0.112
CSc1nc(Oc2ccc3ccccc3c2)c2sccc2n1	3.76
COc1ccc(N2CCN(C(=O)CSc3nnc(-c4cccnc4)n3-c3ccccc3)CC2)cc1	1.79
CCCCCCc1cc2cc(S(=O)(=O)c3ccc(F)c(Cl)c3)c(=O)oc2cc1O	4
CCOc1ccc(C(C(=O)NCCC(C)C)N(CCO)C(=O)c2snc(C(N)=O)c2N)cc1 (stereo not drawn)	-6.07
COc1ccc(C(O)c2cc(OC)ccc2OP(=O)(N(C)C)N(C)C)cc1 (stereo not drawn)	6.74
COc1ccc(CC(=O)OC(C)C(=O)Nc2ccc(Cl)cn2)cc1 (stereo not drawn)	4.24
CCOc1ccc(C(=O)Nc2cccc(C)n2)cc1	5.92
O=C(O)c1cccc(N2CCCC2)c1	-5.14
O=C(/C=C/c1ccco1)NC(=S)Nc1cccc(-c2nc3ccccc3o2)c1	11.3
